Assay results from PubChem BioAssay AID1159614 (National Center for Advancing Translational Sciences (NCATS), 2016).
Screen size: about 45,000 compounds; about 65 (0.1%) were called active. Calls follow the shape of the dose curve; as a rule, active = well fitted activation curve with a large enough effect; inconclusive = small, poorly fitted or top-dose-only effect; inactive = no such curve, though single readings can be large or run the other way. The list shows a part of the results.

Target: Galactocerebrosidase (Homo sapiens) (UniProt P54803)
Sequence of UniProt P54803 (P54803 whole entry, looked up): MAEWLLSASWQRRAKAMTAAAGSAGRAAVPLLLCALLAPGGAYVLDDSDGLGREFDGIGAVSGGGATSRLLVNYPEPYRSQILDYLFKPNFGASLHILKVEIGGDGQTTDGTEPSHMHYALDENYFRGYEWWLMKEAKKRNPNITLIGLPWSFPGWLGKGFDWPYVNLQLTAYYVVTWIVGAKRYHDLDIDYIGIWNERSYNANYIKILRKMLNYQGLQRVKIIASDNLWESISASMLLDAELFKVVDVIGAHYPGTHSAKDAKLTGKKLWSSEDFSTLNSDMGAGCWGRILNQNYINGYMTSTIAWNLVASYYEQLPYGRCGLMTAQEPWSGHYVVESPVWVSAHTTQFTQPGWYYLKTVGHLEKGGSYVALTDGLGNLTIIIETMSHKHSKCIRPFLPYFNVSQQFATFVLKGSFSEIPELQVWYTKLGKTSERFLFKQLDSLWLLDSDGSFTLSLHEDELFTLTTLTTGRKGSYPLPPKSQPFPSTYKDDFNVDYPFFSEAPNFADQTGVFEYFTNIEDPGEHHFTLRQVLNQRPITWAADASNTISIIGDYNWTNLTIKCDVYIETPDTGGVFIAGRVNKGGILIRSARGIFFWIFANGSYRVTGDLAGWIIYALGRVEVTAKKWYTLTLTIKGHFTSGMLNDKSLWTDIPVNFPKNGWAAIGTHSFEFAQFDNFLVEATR
Test: A Novel Cell-Based Assay to Identify Small Molecules for B -Galactocerebrosidase; also: 0% is about no effect; nearly all actives have a fitted effect of over 65% in size
Conditions: 145M-Twi-hGALC-G270D cells (Twitcher mouse brain line with human GALC G270D), HMU-beta-Gal fluorescence, 48 h; series mostly up to 57.5 µM; activation: at the top concentration
Outline: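 Mutant human GALC (G270D), stably expressed in a Twitcher mouse brain cell line lacking endogenous GALC, is measured in live-treated cells via 6-hexadecanoylamino-4-methylumbelliferyl-β-galactoside hydrolysis (0.1 mM final, pH 5.2) with fluorescent detection.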

activation, inactive:
CCSc1ncc(Cl)c(C(=O)N(Cc2ccc(N(C)C)cc2)Cc2ccco2)n1 -34.4%
COCCNC(=O)c1ccc2c(c1)N(Cc1cc(C)ccc1C)C(=O)c1ccccc1S2(=O)=O -0.38%
COc1ccc(S(=O)(=O)N2CCN(c3ccc(Cl)c(Cl)c3)CC2)c2ccccc12 -7.35%
COc1ccc(CNC(=O)C2CCN(S(=O)(=O)c3ccc(F)cc3)CC2)cc1 -15.2%
CSc1ncc(C(=O)Nc2cccc(C)c2C)c(-c2ccccc2)n1 -8.63%
Cc1ccc(O)c2ncccc12 -12.8%
Cc1ccc(-c2nc(-c3cc4cccc(OCc5ccc(F)cc5)c4oc3=O)no2)cc1 -12.8%
CCN1CCc2nc3sc(C(=O)c4ccccc4)c(N)c3cc2C1 -11.6%
CCN(c1ccccc1)S(=O)(=O)c1nnc(NC(=O)C(C)(C)C)s1 -7.39%
CC(CNC(=O)c1ccc(CSc2nc3ccncc3n2Cc2ccc(F)cc2)cc1)c1ccccc1 (configuration not stated) -8.58%
COC(=O)c1ccc2c(c1)N(Cc1cc(C)ccc1C)C(=O)c1ccccc1S2 -27.9%
CCOc1ccc(CCNC(=O)Cn2c(=O)c3cccn3c3ccc(F)cc32)cc1OCC -16.7%
COC(=O)c1ccc(Cn2c(SCc3ccccc3F)nc3ccncc32)cc1 -0.428%
COc1ccc(-c2cc3ccc(O)c(CN4CCCC(C)C4)c3oc2=O)cc1 (configuration not stated) -23.9%
CCOc1ccc2nc(N3CCCC(C(=O)NCCCOC)C3)sc2c1 (configuration not stated) -7.26%
Cc1nc2nc(NCc3cccc(Cl)c3)[nH]n2c(=O)c1Cc1ccccc1 -2.86%
CC(=O)N1CCc2cc(S(=O)(=O)NC(CC(C)C)C(=O)NCCc3ccc(C)cc3)ccc21 (configuration not stated) -12%
COc1ccc(Cn2c(CCC(=O)Nc3ccc(C)c(C)c3)nc3cccnc32)cc1 -10.2%
CCCN(CCC)C(=O)CN1C(=O)CSc2ccc(S(=O)(=O)N3CCC(C)CC3)cc21 -16.4%
CCN(CC)S(=O)(=O)c1ccc2c(c1)nc(CN(C)C(=O)Nc1cccc(Cl)c1)n2C -15.2%
COc1cccc(C(=O)c2cn(CC(=O)Nc3cccc(C(F)(F)F)c3)c3nc(C)ccc3c2=O)c1 -8.93%
CC1C(=O)Nc2ccc(S(=O)(=O)NCc3ccc(N(C)C)cc3)cc2NC1=O (configuration not stated) 7.78%
COc1ccc(OCCn2c(C(C)Oc3ccccc3)nc3ccccc32)cc1 (configuration not stated) -16.3%
Cc1ccc(Cl)cc1-n1ncc2c(NCc3ccc(F)cc3)ncnc21 -10.1%
COc1ccc(-c2cccc(NS(=O)(=O)c3ccc(C)s3)c2)nn1 -11.7%
COCCCNC(=O)c1oc2c(c1C)-c1nn(Cc3ccc(Cl)cc3)cc1CC2 -48.2%
Cc1cc(C)cc(NS(=O)(=O)c2ccc(-n3cccn3)cc2)c1 0.0557%
Cn1cc(CCC(=O)NCc2ccc(Cl)cc2)c2ccccc21 0.757%
CC1CCC(Nc2ncnc3onc(-c4ccc(F)cc4)c23)CC1 (configuration not stated) -8.5%
O=C(O)c1c(-c2ccccc2)oc2ccc(OCc3ccc(Cl)c(Cl)c3)cc12 -16.9%
CCOc1cc(CNc2ccc(C(=O)O)cc2)ccc1OCc1ccccc1 -3.36%
Cn1c(=O)n(C)c2cc(N3CCOCC3)c(NS(=O)(=O)c3ccc(C(C)(C)C)cc3)cc21 -9.75%
CCc1ccc(CNCc2c(C(=O)O)c(C)n(Cc3c(F)cccc3Cl)c2C)cc1 -13.8%
Cc1ccccc1CC1C(=O)Nc2ccc(Br)cc21 (configuration not stated) -9.97%
CCOc1cccc(C(=O)N(Cc2ccc(N(C)C)cc2)CC2CCCO2)c1 (configuration not stated) -9.26%
COc1cccc(-n2c(=O)c3c(C)c(C)sc3n(CC(=O)Nc3ccccc3OC)c2=O)c1 -8.03%
Nc1nc(SCC(=O)Nc2cccc(C(F)(F)F)c2)n[nH]1 -10.5%
CCOC(=O)c1c(-c2ccc(C)cc2)csc1NC(=O)c1cc(-c2ccc(Cl)cc2)on1 0.0078%
CCc1ccccc1NC(=O)N1CCC(CN2CCc3ccccc3C2)CC1 -10.2%
Cc1ccc(C(=O)CCC(=O)Nc2ccc(C)cc2C)cc1 -4.54%
CCOc1ccc(N(C(=O)c2ccccc2F)S(=O)(=O)c2ccc3c(c2)n(C)c(=O)n3C)cc1 -8.67%
CC1CCN(S(=O)(=O)c2ccc3c(ccc(=O)n3CC(=O)Nc3ccc(C(C)C)cc3)c2)CC1 -22%
CNC(=O)Cn1nc(-c2ccc(Cl)cc2)c2ccccc2c1=O -12%
COc1ccc(-c2nc(CCNC(=O)c3cccs3)cs2)cc1 -10.5%
CS(=O)(=O)N(CC(=O)Nc1ccc(Br)cc1)c1ccccc1Br -26.4%
COc1cccc(N2CCN(C(=O)C3CCN(S(=O)(=O)c4cccc5nonc45)CC3)CC2)c1 4.33%
Cc1nn(C)c2c1c(-c1ccccc1)cc(=O)n2Cc1ccccc1Cl -6.34%
Cc1cc(NC(=O)CCNS(=O)(=O)c2ccc3c(c2)CCCC(=O)N3)ccc1Br -43.6%
Cc1ccc(CN(C(=O)COc2ccc(Cl)cc2)c2ccccn2)o1 2.98%
CCCCC(CC)CNC(=O)CN(C)S(=O)(=O)c1ccc2c(c1)c(=O)n(C)c(=O)n2C (configuration not stated) -0.0471%
COc1ccc(NC(=O)CSC2=Nc3ccccc3C3=NC(CCC(=O)NCc4ccc(F)cc4)C(=O)N23)cc1Cl (configuration not stated) -17.7%
CCOC(=O)c1ccc(NC(=O)CC2Sc3ccc(C(F)(F)F)cc3NC2=O)cc1 (configuration not stated) -12.4%
COc1ccc(S(=O)(=O)Nc2ccc3oc4c(c3c2)C(=O)CC(C)(C)C4)cc1 -14.5%
CCCCN(C)C(=O)Cn1c(C2CC(=O)N(c3ccc(C)cc3)C2)nc2ccccc21 (configuration not stated) -21.3%
COc1cccc(C(=O)Nc2cccc(NC(=O)c3ccc(Cl)cc3Cl)c2)c1 -14%
CCOc1ccccc1NC(=O)c1c(NCc2ccc(C)o2)sc2c1CCC(C)C2 (configuration not stated) -6.17%
CCCOc1ccc(-c2nn(-c3ccccc3)cc2C2NC(=O)NC(C)=C2C(=O)OC)cc1 (configuration not stated) -37.8%
CCc1ccc(C(=O)c2cn(CC(=O)Nc3cc(OC)ccc3OC)c3ccc(C)cc3c2=O)cc1 -4.96%
Cc1cccc(NS(=O)(=O)c2ccc3c(c2)[C@H]2C=CC[C@H]2[C@@H](c2ccc(F)cc2)N3)c1 -12.3%
Cc1ccc(C)c(NC(=O)Cn2c(=O)nc(-c3ccccc3)c3ccccc32)c1 -8.65%
CCOc1ccc(CNC(=O)CCCn2nc(C)c3sc4ccccc4c3c2=O)cc1 -17.4%
CCC(C)Nc1sc(S(=O)(=O)CC)nc1S(=O)(=O)c1ccc(C)cc1 (configuration not stated) -10.5%
COC(=O)c1cc(S(=O)(=O)NCC2CCN(Cc3ccc(C)cc3)CC2)cn1C -12.2%
O=C(CCS(=O)(=O)c1cc2c(cc1Cl)NC(=O)CO2)NCCc1ccc(Cl)cc1 -9.85%
CCCCN(C)C(=O)C1CCC(CNS(=O)(=O)c2ccc3c(c2)CC(C)N3C(C)=O)CC1 (configuration not stated) -3.31%
COc1ccc(NC(=O)CSc2nc(-c3ccco3)cc(C(F)(F)F)n2)c(OC)c1 -2.74%
CCN(CC)C(=O)Cn1c(SCCOc2ccc(Cl)cc2)nc2ccccc21 -26.3%
CCCc1nn2c(=O)cc(COc3ccc(/C=C(\C#N)C(=O)Nc4ccc(F)cc4)cc3)nc2s1 -6.07%
COc1ccc(NC(=O)c2ccc(CNS(=O)(=O)c3ccc4c(c3)C(C)(C)C(=O)N4C)cc2)cc1 -36.1%
CC(=O)N1c2ccccc2C(=O)C1N1CCN(c2ccc(F)cc2)CC1 (configuration not stated) -9.29%
Cc1ccc(Cl)cc1NCc1nnc2n1CCCCC2 0.975%
O=C(NCCc1csc(-c2cccc(F)c2)n1)c1ccc(Br)o1 -32%
O=C1CC(c2nc(-c3cccc(Cl)c3)no2)CN1c1ccc2c(c1)OCCO2 (configuration not stated) -12.4%
COc1cccc(-n2c(=O)c3c(C)c(C(=O)N(C)C)sc3n(CC(=O)Nc3ccc(C)cc3Cl)c2=O)c1 5.01%
CC(C)Oc1ccc(CNC(=O)CCn2c(=O)c3cccn3c3ccc(F)cc32)cc1 -14.7%
O=C(Nc1ccc2c(c1)N(C1CCCC1)C(=O)c1ccccc1S2)c1cccc(F)c1 -19.1%
Cc1c(C)n(Cc2ccccc2)c2ccc(C(=O)NCCc3ccccc3Cl)cc12 -5.42%
CC(C)OCCCNC(=O)CN1C(=O)CSc2ccc(S(=O)(=O)N3CCCCC3)cc21 16.3%
COc1cccc(CNC(=O)C2CCCN(c3ncnc4onc(-c5ccc(F)cc5)c34)C2)c1 (configuration not stated) -12.5%
CCOc1ccccc1CNC(=O)CCc1cn(Cc2ccc(Cl)cc2)c2ccccc12 -6.66%
CCN(C(=O)Cn1c(=O)oc2cc(S(=O)(=O)N3CCCC3)ccc21)c1cccc(C)c1 -13.8%
Cc1ccc(-n2nnnc2C2CCN(S(=O)(=O)c3ccc(OC(F)(F)F)cc3)CC2)cc1 -5%
Cc1n[nH]c(C)c1S(=O)(=O)N(CC(=O)NCc1ccccc1Cl)c1ccc(C(C)C)cc1 -1.06%
COc1ccc(CNC(=O)c2ccc3[nH]c(C)c(C)c3c2)c(OC)c1 0.797%
CCOc1cccc(CNc2ccc(O)cc2)c1OCc1ccccc1Cl -14.7%
N#C/C(=C\c1ccc(-c2ccc(F)cc2F)o1)c1nc2ccccc2[nH]1 -17.2%
COc1ccc(C(=O)Nc2ccc(OCc3cc(=O)n4ccccc4n3)cc2)cc1 -20.6%
Cc1cc(C)cc(NC(=O)CN(C)S(=O)(=O)c2ccc3[nH]c4c(c3c2)CCCC4)c1 -19%
CCOc1ccc(CCNC(=O)c2c(C)oc3ncnc(N4CCOCC4)c23)cc1 -5.78%
COCCCNC(=O)CSc1nc2ccccc2c(=O)n1Cc1ccco1 -19.9%
Cc1ccc(NC(=O)CN2C(=O)COc3ccc(S(=O)(=O)N4CCCCCC4)cc32)cc1C 0.472%
Cc1ccc(C)c(N2CCN(C(=O)CCS(=O)(=O)c3ccc4c(c3)CC(=O)N4C)CC2)c1 -10.5%
COc1ccc(-c2onc(C)c2C)cc1S(=O)(=O)NCc1ccc(Br)cc1 2.38%
CCN(CC)CCOC(=O)C(c1ccccc1)C1CCCCC1 (configuration not stated) 6.5%
CCc1nnc2c(NCCc3ccc(OC)c(OC)c3)nc3ccccc3n12 -17%
OC[C@H]1O[C@@H](n2cnc3c(=S)nc[nH]c32)[C@H](O)[C@@H]1O -14.8%
CC(Oc1ccc(F)cc1)C(=O)Nc1cc(-c2ccc(F)c(F)c2)no1 (configuration not stated) -6.36%
